Test results taken from the supplement of paper PMC7826260.
The list shows a part of the results. Each Rep nickase domain was tested in vitro on the same pool of single strands (1 h at 37 °C, 3 µM enzyme); the outer parts of the 90-letter strands are left off. A value is the log2 ratio of uncut reads to the pool without enzyme; the lower, the more was cut; hits are not called. Reads are scaled to the total; uncut strands gain when others are lost, and binding without cutting may add a little.

How the values were obtained:
Experiment in all cases: uncleaved DNA left, log2 of reads against the no-enzyme library (log2 ratio); higher = less cleavage (more negative = more Rep cleavage of the k-mer); sequences stand for … in CTCGTCCG…ACCGGAGA
[1] = tested on: T1, Rep nickase domain of Muscovy duck circovirus
T1 sequence (residues 1-111 of Rep, tag left off): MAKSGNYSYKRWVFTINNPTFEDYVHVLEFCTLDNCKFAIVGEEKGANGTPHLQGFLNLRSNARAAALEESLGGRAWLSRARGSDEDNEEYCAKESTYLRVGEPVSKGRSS
Description: (§1)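 A pool of 90-nt single-stranded DNAs with seven random bases just before the constant AC of the nick site (name = the seven bases) was cut by 3 µM recombinant His6-SUMO-tagged Rep nickase domain (300 nM DNA, 50 mM HEPES pH 8.0, 50 mM NaCl, 1 mM MnCl2, 1 h, 37 °C, three replicates). Uncut DNA was amplified and sequenced.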

[2] = tested on: T2, Rep nickase domain of banana bunchy top virus
T2 sequence (residues 1-94 of Rep, tag left off): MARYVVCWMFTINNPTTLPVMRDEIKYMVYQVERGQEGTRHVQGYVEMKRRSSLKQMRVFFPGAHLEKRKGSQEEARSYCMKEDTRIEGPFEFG
Description: as §1

[3] = tested on: T3, Rep nickase domain of cabbage leaf curl virus
T3 sequence (residues 1-116 of Rep, tag left off): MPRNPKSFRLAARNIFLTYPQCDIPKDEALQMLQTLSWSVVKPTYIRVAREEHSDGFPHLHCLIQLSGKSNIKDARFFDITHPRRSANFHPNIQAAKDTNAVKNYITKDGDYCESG
Description: as §1

[4] = tested on: T4, Rep nickase domain of chickpea chlorotic dwarf virus
T4 sequence (residues 1-124 of Rep, tag left off): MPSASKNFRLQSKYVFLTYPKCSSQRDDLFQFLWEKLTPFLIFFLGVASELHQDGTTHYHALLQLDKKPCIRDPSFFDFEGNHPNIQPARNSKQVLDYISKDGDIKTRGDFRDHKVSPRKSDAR
Description: as §1

[5] = tested on: T5, Rep nickase domain of faba bean necrotic yellows virus
T5 sequence (residues 1-98 of Rep, tag left off): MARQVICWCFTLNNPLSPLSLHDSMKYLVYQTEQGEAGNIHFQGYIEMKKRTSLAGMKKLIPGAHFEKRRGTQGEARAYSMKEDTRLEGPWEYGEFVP
Description: as §1

[6] = tested on: T6, Rep nickase domain of maize striate mosaic virus
T6 sequence (residues 1-117 of Rep, tag left off): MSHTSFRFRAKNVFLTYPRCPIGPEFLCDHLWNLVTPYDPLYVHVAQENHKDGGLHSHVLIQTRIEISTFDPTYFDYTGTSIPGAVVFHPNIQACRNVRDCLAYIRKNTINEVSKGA
Description: as §1

[7] = tested on: T7, Rep nickase domain of porcine circovirus 2
T7 sequence (residues 2-116 of Rep, tag left off): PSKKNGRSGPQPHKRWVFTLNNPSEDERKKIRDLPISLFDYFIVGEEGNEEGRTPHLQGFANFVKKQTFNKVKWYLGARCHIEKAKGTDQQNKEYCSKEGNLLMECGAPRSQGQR
Description: as §1

[8] = tested on: T8, Rep nickase domain of tomato golden mosaic virus
T8 sequence (residues 1-124 of Rep, tag left off): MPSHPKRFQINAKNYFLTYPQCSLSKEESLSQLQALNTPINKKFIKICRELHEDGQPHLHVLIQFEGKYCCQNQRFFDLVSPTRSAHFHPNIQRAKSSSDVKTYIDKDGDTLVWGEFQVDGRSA
Description: as §1

[9] = tested on: T9, Rep nickase domain of tomato yellow leaf curl virus
T9 sequence (residues 1-136 of Rep, tag left off): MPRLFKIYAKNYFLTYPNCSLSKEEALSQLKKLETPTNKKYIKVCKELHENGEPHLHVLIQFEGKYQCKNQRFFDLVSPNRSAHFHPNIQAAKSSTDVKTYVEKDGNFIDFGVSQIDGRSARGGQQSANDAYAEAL
Description: as §1

[10] = tested on: T10, Rep nickase domain of wheat dwarf virus
T10 sequence (residues 1-137 of Rep, tag left off): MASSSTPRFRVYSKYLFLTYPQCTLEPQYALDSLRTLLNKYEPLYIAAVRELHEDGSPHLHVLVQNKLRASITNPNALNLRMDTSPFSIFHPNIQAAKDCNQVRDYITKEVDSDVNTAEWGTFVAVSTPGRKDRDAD
Description: as §1

| Sequence | uncleaved DNA left (log2) [1] | uncleaved DNA left (log2) [2] | uncleaved DNA left (log2) [3] | uncleaved DNA left (log2) [4] | uncleaved DNA left (log2) [5] | uncleaved DNA left (log2) [6] | uncleaved DNA left (log2) [7] | uncleaved DNA left (log2) [8] | uncleaved DNA left (log2) [9] | uncleaved DNA left (log2) [10] |
| --- | --- | --- | --- | --- | --- | --- | --- | --- | --- | --- |
| GGAGCGT | -0.135 | -0.0284 | 0.348 | 0.908 | -0.11 | 0.675 | 0.0597 | -0.0675 | -0.107 | -0.0292 |
| AGTATTC | 0.043 | 0.0736 | 0.198 | 0.313 | 0.0717 | -0.316 | -0.1 | 0.049 | 0.0377 | -0.00695 |
| TTCTTTT | -3.22 | -0.268 | -0.611 | -2.5 | -0.107 | -0.4 | -3.1 | -0.106 | -0.0332 | -0.115 |
| AATCATT | -0.99 | -0.243 | -1.43 | -2.45 | -0.148 | -0.579 | -3.19 | -0.22 | -0.09 | -0.268 |
| TTTCCTC | -0.0247 | 0.0338 | 0.198 | -0.34 | -0.0252 | -0.317 | -0.58 | -0.0847 | 0.0866 | 0.0835 |
| CACTGTT | -3.23 | -3.02 | -1.98 | -3 | -0.605 | 0.147 | -3.63 | -0.494 | 0.0225 | -0.243 |
| CTCTTGG | 0.106 | 0.0679 | -0.381 | -0.287 | -0.0287 | -0.916 | 0.214 | 0.0366 | 0.0421 | 0.0481 |
| GAATCGC | 0.0486 | 0.121 | -0.618 | -0.654 | 0.136 | -0.806 | 0.176 | 0.0523 | 0.136 | 0.00797 |
| GTGAGTA | 0.0196 | 0.144 | 0.295 | 0.885 | 0.0666 | 1.73 | 0.0726 | 0.109 | 0.152 | 0.17 |
| TAGGCTA | -0.0302 | 0.016 | 0.194 | -0.702 | -0.0511 | 0.67 | -0.313 | 0.154 | 0.0337 | -0.00054 |
| GTAATGT | -0.0284 | 0.00451 | 0.312 | 0.751 | -0.0457 | 1.52 | 0.129 | 0.0512 | -0.0119 | -0.0283 |
| TTTCCTG | 0.0315 | -0.115 | -0.128 | -0.588 | -0.0281 | -0.184 | -0.0899 | 0.0264 | -0.0625 | 0.0322 |
| TAGGAGA | 0.0777 | 0.106 | 0.333 | 0.688 | -0.0994 | 0.719 | 0.0437 | 0.0862 | 0.0287 | 0.0097 |
| CGCCGTG | -0.224 | 0.0141 | -0.274 | -0.456 | -0.0287 | -0.568 | 0.00946 | -0.142 | 0.0492 | -0.161 |
| TAGTACA | -0.473 | -0.371 | -0.922 | -2.53 | -1.07 | -0.0368 | -3.32 | -0.175 | 0.125 | -0.637 |
